# About 160 (5.9%) of roughly 2,700 compounds showed an effect of 50% or more. Some of the results follow.
# Molecular target: Nonstructural protein 3 (Zika virus) (UniProt A0A024AXB9)
# [1] = PRVABC59, Concentration 15.0 uM, Number of replicates 1.0
# [2] = PRVABC59, Concentration 50.0 uM, Number of replicates 1.0
# [3] = PRVABC59, Concentration 10.0 uM, Number of replicates 1.0
# Sequence of UniProt A0A024AXB9 (A0A024AXB9 as listed by the source): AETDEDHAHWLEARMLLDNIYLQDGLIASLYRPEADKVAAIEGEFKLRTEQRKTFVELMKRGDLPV
smiles,measurement,setting,value
COc1cc(C(=O)N2CCCCC2)nc(N2CCNCC2)n1,inhibition,"PRVABC59, Concentration 49.5 uM, Number of replicates 2.0, Standard deviation 4.620460715798585 %",0.369%
same,inhibition,"PRVABC59, Concentration 99.01 uM, Number of replicates 2.0, Standard deviation 3.120933039054405 %",1.45%
same,inhibition,"PRVABC59, Concentration 198.0 uM, Number of replicates 2.0, Standard deviation 4.0741886266062775 %",2.26%
O=C(c1cc(Cl)ccc1NS(=O)(=O)c1ccc(Oc2ccccc2Cl)cc1)N1CCC(Cc2ccccc2)CC1,inhibition,[1],23.2%
Cc1ccc([C@H](CNC(=O)c2cc(Cl)ccc2NS(=O)(=O)c2ccc(Oc3ccccc3Cl)cc2)N(C)C)cc1,inhibition,[1],24.6%
CC(CNC(=O)C1CCN(c2ccc(C=O)cc2)CC1)(c1ccccc1)c1ccccc1,inhibition,[2],-6.68%
O=Cc1ccc(N2CCC(C(=O)Nc3c(Cl)cc(Cl)cc3Br)CC2)cc1,inhibition,[2],22.3%
O=C(c1cc(Cl)ccc1NS(=O)(=O)c1ccc(Oc2ccccc2Cl)cc1)N1CCc2cc(Cl)ccc2C1,inhibition,[1],8.02%
O=C(NCc1ccc(Br)cn1)c1cc(Cl)ccc1NS(=O)(=O)c1ccc(Oc2ccccc2Cl)cc1,inhibition,[1],41.7%
O=C(Nc1c(F)c(F)cc(F)c1F)c1cc(Cl)ccc1NS(=O)(=O)c1ccc(Oc2ccccc2Cl)cc1,inhibition,[1],23.1%
O=C(CN1CCN(C(=O)c2cc(Cl)ccc2NS(=O)(=O)c2ccc(Oc3ccccc3Cl)cc2)CC1)N1CCOCC1,inhibition,[1],6.13%
O=C(c1cc(Cl)ccc1NS(=O)(=O)c1ccc(Oc2ccccc2Cl)cc1)N1CCN(S(=O)(=O)c2cccc(Br)c2)CC1,inhibition,[1],20.9%
O=Cc1ccc(N2CCC(C(=O)Nc3ncnc4c3ncn4CCO)CC2)cc1,inhibition,[2],27.1%
C[C@H](NC(=O)C1CCN(c2ccc(C=O)cc2)CC1)c1ccc(Br)cc1,inhibition,[3],14%
O=C(Cn1sc2ccccc2c1=O)Nc1cccc(OCc2cn(CC(=O)Nc3ccccc3Oc3ccccc3)nn2)c1,inhibition,"PRVABC59, Concentration 49.5 uM, Number of replicates 2.0, Standard deviation 0.019067908615904634 %",53.7%
same,inhibition,"PRVABC59, Concentration 99.01 uM, Number of replicates 2.0, Standard deviation 0.0558469345004512 %",58.2%
same,inhibition,"PRVABC59, Concentration 198.0 uM, Number of replicates 2.0, Standard deviation 0.30102425600760013 %",69.5%
COc1ccc(CNC(=O)C2CCN(c3ccc(C=O)cc3)CC2)c(OC)c1,inhibition,[3],14.4%
CN(C(=O)OC(C)(C)C)[C@H]1CCN(C(=O)c2cc(Cl)ccc2NS(=O)(=O)c2ccc(Oc3ccccc3Cl)cc2)C1,inhibition,[1],13.2%
O=Cc1ccc(N2CCC(C(=O)NCCc3ccc(-c4ccccc4)cc3)CC2)cc1,inhibition,[2],20.5%
O=C(c1cc(Cl)ccc1NS(=O)(=O)c1ccc(Oc2ccccc2Cl)cc1)N(CCN1CCOCC1)Cc1ccco1,inhibition,[1],9.78%
O=C(Nc1ncc(Br)nc1Cl)c1cc(Cl)ccc1NS(=O)(=O)c1ccc(Oc2ccccc2Cl)cc1,inhibition,[1],16.8%
CC(C)Nc1nc2cc(NC(=O)Cc3cocn3)ccc2[nH]1,inhibition,"PRVABC59, Concentration 49.5 uM, Number of replicates 2.0, Standard deviation 2.1343169986475528 %",-2.25%
same,inhibition,"PRVABC59, Concentration 99.01 uM, Number of replicates 2.0, Standard deviation 1.9872598164035848 %",-3.65%
same,inhibition,"PRVABC59, Concentration 198.0 uM, Number of replicates 2.0, Standard deviation 2.1720750958230077 %",-3.27%
C[C@@H](Cc1ccc(O)cc1)NC(=O)c1cc(Cl)ccc1NS(=O)(=O)c1ccc(Oc2ccccc2Cl)cc1,inhibition,[1],33.3%
COC(=O)c1csc(Cn2ncc(C3CCNCC3)c2C)n1,inhibition,"PRVABC59, Concentration 49.5 uM, Number of replicates 2.0, Standard deviation 0.08147761319168417 %",-4.35%
same,inhibition,"PRVABC59, Concentration 99.01 uM, Number of replicates 2.0, Standard deviation 1.037349592805416 %",-3.04%
same,inhibition,"PRVABC59, Concentration 198.0 uM, Number of replicates 2.0, Standard deviation 2.1780367675448735 %",-0.655%
O=C(c1cc(Cl)ccc1NS(=O)(=O)c1ccc(Oc2ccccc2Cl)cc1)N1CCN(c2ccc(C(F)(F)F)cc2)CC1,inhibition,[1],8.46%
O=Cc1ccc(N2CCC(C(=O)Nc3cnc4sccn4c3=O)CC2)cc1,inhibition,[2],9.78%

# Source: ChEMBL document CHEMBL5606458, “ASAP - ZIKV NS2B-NS3 protease fluorescence single point” (2024)
